From paper PMC12820563
Some of the results follow. The list includes weakly bound sequences.

Each sequence was assayed against T1, MBP-FoxP3dN (UniProt Q99JB6) (assay: PD-seq (MBP pull-down with sequencing)). Details: 20 mM Tris-HCl pH 7.5, 100 mM NaCl, 1.5 mM MgCl2, 0.4 uM protein, 0.1 uM dsDNA library, 30 min, room temperature, amylose pull-down; high values mean tight binding; double strand, one strand shown.
T1 sequence: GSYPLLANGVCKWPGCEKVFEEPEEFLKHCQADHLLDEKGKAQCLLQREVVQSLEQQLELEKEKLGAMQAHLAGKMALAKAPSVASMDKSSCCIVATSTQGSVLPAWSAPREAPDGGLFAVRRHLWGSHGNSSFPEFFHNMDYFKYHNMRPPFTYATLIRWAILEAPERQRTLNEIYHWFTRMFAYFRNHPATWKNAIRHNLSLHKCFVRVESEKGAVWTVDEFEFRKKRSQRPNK

Sequence	binding signal (RPM ratio (pull-down/input))
GATGATTGTTCTCCCAGCTGATGAATTCGCCACTTCGAGTAAACAAATTTTCCTAATCTTTCTGTTCAAGCGCCATCTAC	1.71
GATGATTGTTCTCCCAGCTGATGAATTTTCCTCGTCGAGTAAACAAATTTTCCTAATCTTTCTGTTCAAGCGCCATCTAC	0.231
GATGATTGTTCTCCCAGCTGATGAATTCTGGGACTCGAGTAAACAAATTTTCCTAATCTTTCTGTTCAAGCGCCATCTAC	0.335
GATGATTGTTCTCCCAGCTGATGAATTGAGTCACTCGAGTAAACAAATTTTCCTAATCTTTCTGTTCAAGCGCCATCTAC	0.806
GATGATTGTTCTCCCAGCTGATGAATTGTGGCCTTCGAGTAAACAAATTTTCCTAATCTTTCTGTTCAAGCGCCATCTAC	2.55
GATGATTGTTCTCCCAGCTGATGAATTGGACCTGTCGAGTAAACAAATTTTCCTAATCTTTCTGTTCAAGCGCCATCTAC	0.265
GATGATTGTTCTCCCAGCTGATGAATTAGTATCTTCGAGTAAACAAATTTTCCTAATCTTTCTGTTCAAGCGCCATCTAC	2.31
GATGATTGTTCTCCCAGCTGATGAATTTAAGCTGTCGAGTAAACAAATTTTCCTAATCTTTCTGTTCAAGCGCCATCTAC	0.345
GATGATTGTTCTCCCAGCTGATGAATTCTTATCCTCGAGTAAACAAATTTTCCTAATCTTTCTGTTCAAGCGCCATCTAC	0.237
GATGATTGTTCTCCCAGCTGATGAATTGCTAGTCTCGAGTAAACAAATTTTCCTAATCTTTCTGTTCAAGCGCCATCTAC	0.843
GATGATTGTTCTCCCAGCTGATGAATTAGTTTATTCGAGTAAACAAATTTTCCTAATCTTTCTGTTCAAGCGCCATCTAC	5.28
GATGATTGTTCTCCCAGCTGATGAATTATTAAGTTCGAGTAAACAAATTTTCCTAATCTTTCTGTTCAAGCGCCATCTAC	0.341
GATGATTGTTCTCCCAGCTGATGAATTTAGTCATTCGAGTAAACAAATTTTCCTAATCTTTCTGTTCAAGCGCCATCTAC	1.33
GATGATTGTTCTCCCAGCTGATGAATTAACCACGTCGAGTAAACAAATTTTCCTAATCTTTCTGTTCAAGCGCCATCTAC	0.277
GATGATTGTTCTCCCAGCTGATGAATTGAATCGATCGAGTAAACAAATTTTCCTAATCTTTCTGTTCAAGCGCCATCTAC	0.276
GATGATTGTTCTCCCAGCTGATGAATTGACTAGATCGAGTAAACAAATTTTCCTAATCTTTCTGTTCAAGCGCCATCTAC	0.235
GATGATTGTTCTCCCAGCTGATGAATTTGCGGTCTCGAGTAAACAAATTTTCCTAATCTTTCTGTTCAAGCGCCATCTAC	1.58
GATGATTGTTCTCCCAGCTGATGAATTTGGCTTGTCGAGTAAACAAATTTTCCTAATCTTTCTGTTCAAGCGCCATCTAC	3.11
GATGATTGTTCTCCCAGCTGATGAATTTTTGTCCTCGAGTAAACAAATTTTCCTAATCTTTCTGTTCAAGCGCCATCTAC	0.301
GATGATTGTTCTCCCAGCTGATGAATTATGCAGATCGAGTAAACAAATTTTCCTAATCTTTCTGTTCAAGCGCCATCTAC	0.865
GATGATTGTTCTCCCAGCTGATGAATTCATCAAGTCGAGTAAACAAATTTTCCTAATCTTTCTGTTCAAGCGCCATCTAC	0.256

Sequence	binding signal (RPM ratio (pull-down/input))
GATGATTGTTCTCCCAGCTGATGAATTAACAAAATCGAGTAAACAAATTTTCCTAATCTTTCTGTTCAAGCGCCATCTAC	0.327
GATGATTGTTCTCCCAGCTGATGAATTACCCGGTTCGAGTAAACAAATTTTCCTAATCTTTCTGTTCAAGCGCCATCTAC	0.221
GATGATTGTTCTCCCAGCTGATGAATTTTATTAATCGAGTAAACAAATTTTCCTAATCTTTCTGTTCAAGCGCCATCTAC	0.755
GATGATTGTTCTCCCAGCTGATGAATTGCAATGGTCGAGTAAACAAATTTTCCTAATCTTTCTGTTCAAGCGCCATCTAC	1.25
GATGATTGTTCTCCCAGCTGATGAATTAGAGCACTCGAGTAAACAAATTTTCCTAATCTTTCTGTTCAAGCGCCATCTAC	0.377
GATGATTGTTCTCCCAGCTGATGAATTAAATTCGTCGAGTAAACAAATTTTCCTAATCTTTCTGTTCAAGCGCCATCTAC	0.386
GATGATTGTTCTCCCAGCTGATGAATTAGATGCTTCGAGTAAACAAATTTTCCTAATCTTTCTGTTCAAGCGCCATCTAC	1.96
GATGATTGTTCTCCCAGCTGATGAATTGGCCATCTCGAGTAAACAAATTTTCCTAATCTTTCTGTTCAAGCGCCATCTAC	0.721
GATGATTGTTCTCCCAGCTGATGAATTAGGACACTCGAGTAAACAAATTTTCCTAATCTTTCTGTTCAAGCGCCATCTAC	1.22
GATGATTGTTCTCCCAGCTGATGAATTGATGCAATCGAGTAAACAAATTTTCCTAATCTTTCTGTTCAAGCGCCATCTAC	5.86
GATGATTGTTCTCCCAGCTGATGAATTACAAAACTCGAGTAAACAAATTTTCCTAATCTTTCTGTTCAAGCGCCATCTAC	0.374
GATGATTGTTCTCCCAGCTGATGAATTGCTAGATTCGAGTAAACAAATTTTCCTAATCTTTCTGTTCAAGCGCCATCTAC	0.584
GATGATTGTTCTCCCAGCTGATGAATTCAGGCGGTCGAGTAAACAAATTTTCCTAATCTTTCTGTTCAAGCGCCATCTAC	0.36
GATGATTGTTCTCCCAGCTGATGAATTACTGGTATCGAGTAAACAAATTTTCCTAATCTTTCTGTTCAAGCGCCATCTAC	0.49
GATGATTGTTCTCCCAGCTGATGAATTAAAGTCGTCGAGTAAACAAATTTTCCTAATCTTTCTGTTCAAGCGCCATCTAC	0.372
GATGATTGTTCTCCCAGCTGATGAATTTACAATATCGAGTAAACAAATTTTCCTAATCTTTCTGTTCAAGCGCCATCTAC	0.904
GATGATTGTTCTCCCAGCTGATGAATTTATTACCTCGAGTAAACAAATTTTCCTAATCTTTCTGTTCAAGCGCCATCTAC	1.79
GATGATTGTTCTCCCAGCTGATGAATTTGTTCTTTCGAGTAAACAAATTTTCCTAATCTTTCTGTTCAAGCGCCATCTAC	2.28
GATGATTGTTCTCCCAGCTGATGAATTTGGATGTTCGAGTAAACAAATTTTCCTAATCTTTCTGTTCAAGCGCCATCTAC	1.52
GATGATTGTTCTCCCAGCTGATGAATTTCTAAGATCGAGTAAACAAATTTTCCTAATCTTTCTGTTCAAGCGCCATCTAC	0.171
GATGATTGTTCTCCCAGCTGATGAATTATGACAGTCGAGTAAACAAATTTTCCTAATCTTTCTGTTCAAGCGCCATCTAC	0.573

Sequence	binding signal (RPM ratio (pull-down/input))
GATGATTGTTCTCCCAGCTGATGAATTGGAGGATTCGAGTAAACAAATTTTCCTAATCTTTCTGTTCAAGCGCCATCTAC	0.292
GATGATTGTTCTCCCAGCTGATGAATTCCATCACTCGAGTAAACAAATTTTCCTAATCTTTCTGTTCAAGCGCCATCTAC	0.74
GATGATTGTTCTCCCAGCTGATGAATTTGGTAATTCGAGTAAACAAATTTTCCTAATCTTTCTGTTCAAGCGCCATCTAC	1.15
GATGATTGTTCTCCCAGCTGATGAATTCTCAAATTCGAGTAAACAAATTTTCCTAATCTTTCTGTTCAAGCGCCATCTAC	0.233
GATGATTGTTCTCCCAGCTGATGAATTATCAGCGTCGAGTAAACAAATTTTCCTAATCTTTCTGTTCAAGCGCCATCTAC	0.46
GATGATTGTTCTCCCAGCTGATGAATTGTGTGTGTCGAGTAAACAAATTTTCCTAATCTTTCTGTTCAAGCGCCATCTAC	5.21
GATGATTGTTCTCCCAGCTGATGAATTGATCTCCTCGAGTAAACAAATTTTCCTAATCTTTCTGTTCAAGCGCCATCTAC	0.3
GATGATTGTTCTCCCAGCTGATGAATTTATCCGATCGAGTAAACAAATTTTCCTAATCTTTCTGTTCAAGCGCCATCTAC	0.279
GATGATTGTTCTCCCAGCTGATGAATTTAATCAGTCGAGTAAACAAATTTTCCTAATCTTTCTGTTCAAGCGCCATCTAC	0.294
GATGATTGTTCTCCCAGCTGATGAATTACAGCACTCGAGTAAACAAATTTTCCTAATCTTTCTGTTCAAGCGCCATCTAC	0.595
GATGATTGTTCTCCCAGCTGATGAATTACTTTGATCGAGTAAACAAATTTTCCTAATCTTTCTGTTCAAGCGCCATCTAC	0.326
GATGATTGTTCTCCCAGCTGATGAATTTGGTTAGTCGAGTAAACAAATTTTCCTAATCTTTCTGTTCAAGCGCCATCTAC	2.03
GATGATTGTTCTCCCAGCTGATGAATTACTGATCTCGAGTAAACAAATTTTCCTAATCTTTCTGTTCAAGCGCCATCTAC	0.328
GATGATTGTTCTCCCAGCTGATGAATTAGGGCGGTCGAGTAAACAAATTTTCCTAATCTTTCTGTTCAAGCGCCATCTAC	0.305
GATGATTGTTCTCCCAGCTGATGAATTTTGTTGGTCGAGTAAACAAATTTTCCTAATCTTTCTGTTCAAGCGCCATCTAC	7.07
GATGATTGTTCTCCCAGCTGATGAATTCCTCACATCGAGTAAACAAATTTTCCTAATCTTTCTGTTCAAGCGCCATCTAC	0.377
GATGATTGTTCTCCCAGCTGATGAATTCACGTTGTCGAGTAAACAAATTTTCCTAATCTTTCTGTTCAAGCGCCATCTAC	0.685
GATGATTGTTCTCCCAGCTGATGAATTTTTGGAATCGAGTAAACAAATTTTCCTAATCTTTCTGTTCAAGCGCCATCTAC	0.241
GATGATTGTTCTCCCAGCTGATGAATTAAGGCACTCGAGTAAACAAATTTTCCTAATCTTTCTGTTCAAGCGCCATCTAC	0.76
GATGATTGTTCTCCCAGCTGATGAATTATGTTTGTCGAGTAAACAAATTTTCCTAATCTTTCTGTTCAAGCGCCATCTAC	7.57
GATGATTGTTCTCCCAGCTGATGAATTTGTAGTGTCGAGTAAACAAATTTTCCTAATCTTTCTGTTCAAGCGCCATCTAC	5.37
